Test results from the supplement of paper PMC10441789.
Some of the results follow. Antibody binding of pooled human sera (four to six donors per pool; dilution not stated) to peptides of the Trypanosoma cruzi antigen TSSA on microarrays. Quantile-normalised fluorescence in arbitrary units, mean of duplicate arrays; higher = more binding. No active / inactive call. The uninfected pools are read here as the healthy donors of the same country. The strongest signals lie near the top of the scale (about 60,000).

Key:
Experiment in all cases: antibody binding signal (normalised fluorescence) (arbitrary fluorescence units); higher = stronger serum antibody binding to peptide
[1] = test system: pooled sera of chronic Chagas disease patients, Bolivia
Method: (§1)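 Microarray of 15-residue peptides over residues 30-55 of Trypanosoma cruzi TSSAII, each with 1 to 10 substitutions at naturally variable positions, probed with one serum pool per country.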

[2] = test system: pooled sera of chronic Chagas disease patients, Brazil
Method: as §1

[3] = test system: pooled sera of chronic Chagas disease patients, Colombia
Method: as §1

[4] = test system: pooled sera of chronic Chagas disease patients, Mexico
Method: as §1

[5] = test system: pooled sera of chronic Chagas disease patients, USA
Method: as §1

[6] = test system: pooled sera of uninfected people, Argentina
Method: as §1

[7] = test system: pooled sera of uninfected people, Bolivia
Method: as §1

[8] = test system: pooled sera of uninfected people, Brazil
Method: as §1

[9] = test system: pooled sera of uninfected people, Colombia
Method: as §1

[10] = test system: pooled sera of uninfected people, Mexico
Method: as §1

[11] = test system: pooled sera of uninfected people, USA
Method: as §1

[12] = test system: pooled sera of chronic Chagas disease patients, Argentina
Method: as §1

Row | Sequence | antibody binding signal [1] | antibody binding signal [2] | antibody binding signal [3] | antibody binding signal [4] | antibody binding signal [5] | antibody binding signal [6] | antibody binding signal [7] | antibody binding signal [8] | antibody binding signal [9] | antibody binding signal [10] | antibody binding signal [11] | antibody binding signal [12]
1 | SGKDNKPAAGETPSQ | 663 | 21800 | 1330 | 987 | 2650 | 704 | 842 | 195 | 678 | 408 | 98.6 | –
2 | SGTDKKAAAGETPSQ | 1430 | 6570 | 5180 | 432 | 1100 | 152 | 338 | 189 | 769 | 1130 | 153 | 319
3 | SGTEKKPATGETPSQ | 27400 | 30900 | 351 | 310 | 21400 | 268 | 710 | 525 | 162 | 1710 | 296 | 33000
4 | GTEKKPAAGEAPSPP | 611 | 11000 | 1460 | 1610 | 13300 | 114 | 1060 | 1380 | 86.3 | 404 | 1060 | 4030
5 | PSGKEKKPAAGEAPS | 3500 | 11000 | 13900 | 12600 | 14800 | 685 | 541 | 102 | 238 | 79.5 | 240 | 10800
6 | KEKKPATGGAPSPPG | 370 | 468 | 468 | 969 | 904 | 274 | 392 | 98.9 | 80.8 | 89 | 290 | 469
7 | KEKKTAAGETPSPSG | 194 | 178 | 260 | 210 | 1320 | 127 | 115 | 101 | 204 | 90.1 | 456 | 159
8 | KKAATGGTPSQSGAS | 296 | 172 | 259 | 248 | 485 | 273 | 104 | 242 | 300 | 148 | 215 | 362
9 | TENKPATGETPSPPG | 35900 | 35900 | 257 | 620 | 27200 | 334 | 426 | 368 | 146 | 1710 | 1450 | 42200
10 | DKKPAAGETPSQSGA | 277 | 11300 | 186 | 233 | 1580 | 92.2 | 251 | 226 | 713 | 122 | 105 | –
11 | SGKENKPAAGGAPSP | 779 | 18800 | 5390 | 5270 | 18900 | 7600 | 3030 | 287 | 229 | 317 | 205 | 3740
12 | SGKDNKTAAGGTPSQ | 305 | 928 | 5700 | 1150 | 3390 | 231 | 130 | 286 | 541 | 480 | 156 | 1560
13 | TPPSGTDKKPAAGGA | 8480 | 45200 | 8290 | 53000 | 8470 | 1790 | 361 | 1320 | 392 | 3170 | 520 | 37300
14 | GKDNKTAAGGAPSPS | 321 | 279 | 3540 | 812 | 686 | 190 | 138 | 180 | 178 | 105 | 133 | 441
15 | GTDNKPAAGEAPSQP | 27800 | 44900 | 1100 | 226 | 17700 | 133 | 628 | 335 | 117 | 318 | 151 | 10700
16 | TEKKTATGGTPSQPG | 562 | 926 | 6370 | 804 | 2530 | 551 | 213 | 425 | 1120 | 1050 | 228 | 1190
17 | KEKKPATGETPSQSG | 3600 | 23600 | 172 | 202 | 18700 | 229 | 162 | 140 | 126 | 559 | 415 | 25700
18 | PPSGTEKKAATGGTP | 1010 | 12400 | 1060 | 2840 | 3610 | 972 | 525 | 650 | 1030 | 123 | 226 | 25800
19 | KKAAAGETPSQPGAS | 1170 | 24500 | 197 | 120 | 1220 | 206 | 182 | 88.4 | 181 | 89 | 251 | 249

Row | Sequence | antibody binding signal [1] | antibody binding signal [2] | antibody binding signal [3] | antibody binding signal [4] | antibody binding signal [5] | antibody binding signal [6] | antibody binding signal [7] | antibody binding signal [8] | antibody binding signal [9] | antibody binding signal [10] | antibody binding signal [11] | antibody binding signal [12]
20 | TPPSGTEKKPATGGA | 4220 | 39600 | 857 | 19500 | 6770 | 1660 | 1820 | 513 | 208 | 284 | 1120 | 43700
21 | TISTPPSGKEKKAAA | 198 | 498 | 632 | 21100 | 648 | 757 | 577 | 137 | 290 | 76.2 | 238 | 12100
22 | GKDKKPATGGTPSPP | 561 | 246 | 1070 | 741 | 1160 | 187 | 132 | 232 | 136 | 129 | 102 | 613
23 | SSTPPSGKENKTATG | 15900 | 13200 | 902 | 5480 | 2780 | 2100 | 1100 | 177 | 663 | 419 | 454 | 17700
24 | TSSTPPSGKDKKPAA | 1030 | 2750 | 251 | 51000 | 774 | 461 | 203 | 106 | 203 | 103 | 145 | –
25 | TENKAATGGAPSQPG | 1700 | 25500 | 570 | 606 | 3370 | 279 | 149 | 293 | 191 | 182 | 168 | 32000
26 | GTEKKAATGGAPSPP | 209 | 806 | 1890 | 1700 | 2450 | 451 | 1070 | 109 | 887 | 143 | 148 | 1480
27 | DKKPAAGGAPSPSGA | 232 | 390 | 5220 | 346 | 934 | 312 | 172 | 272 | 125 | 132 | 166 | 899
28 | PSGTENKTAAGEAPS | 24500 | 41800 | 2080 | 1990 | 12900 | 1200 | 501 | 316 | 423 | 318 | 597 | 48000
29 | KDKKPAAGGAPSPSG | 231 | 205 | 1730 | 259 | 475 | 110 | 74.1 | 125 | 69.8 | 72.5 | 106 | 204
30 | TENKAAAGGTPSQPG | 570 | 1670 | 4010 | 347 | 2110 | 330 | 141 | 1480 | 385 | 803 | 148 | 34500
31 | GKEKKAAAGGAPSQS | 205 | 240 | 4330 | 2060 | 1290 | 118 | 83.8 | 132 | 90.4 | 86 | 119 | 932
32 | TENKPAAGEAPSQPG | 26000 | 44100 | 332 | 487 | 16600 | 189 | 330 | 223 | 78.6 | 110 | 151 | 44600
33 | TENKTATGEAPSPPG | 30800 | 21300 | 180 | 159 | 21000 | 118 | 113 | 219 | 155 | 124 | 107 | 26000
34 | PSGKENKTAAGGAPS | 1500 | 10900 | 15900 | 12700 | 9360 | 5840 | 1800 | 788 | 503 | 323 | 192 | 7800
35 | PSGKDKKTATGETPS | 736 | 2770 | 1920 | 2010 | 7220 | 208 | 219 | 105 | 116 | 92.7 | 117 | 2060
36 | GKDKKTAAGGAPSQP | 345 | 435 | 2710 | 432 | 374 | 140 | 108 | 125 | 138 | 128 | 137 | 285
37 | ISTPPSGTENKTAAG | 46900 | 56100 | 342 | 9080 | 31900 | 4350 | 752 | 510 | 859 | 455 | 683 | –
